Laboratory results taken from PubChem BioAssay AID504332 (National Center for Advancing Translational Sciences (NCATS), 2011).
Out of some 350,000 compounds screened, about 31,000 (8.9%) were called active. Inconclusive means that the source gave no clear call. Such entries were picked first, then a sample of the others. The call rests on the fitted dose curve; in most records, active means well fitted inhibition curve with a large enough effect; inconclusive means small, poorly fitted or top-dose-only effect; inactive means no such curve, though single readings can be large or run the other way. Potencies of inconclusive entries are doubtful fits and often do not repeat.
Further: nearly all actives have a fitted effect of over 75% in size.
On the % scale 0 is the no-effect control and ±100 the full control effect; potency means the concentration at half of the fitted maximal effect; tags describe the fitted curve by direction and shape.

The compounds below were run against Histone-lysine N-methyltransferase EHMT2 (Homo sapiens) (UniProt Q96KQ7) (assay: qHTS Assay for Inhibitors of Histone Lysine Methyltransferase G9a). Settings: G9a H3K9 monomethylation, AlphaScreen, 2 h; activity, negative = inhibition: at 59 µM (top of the series) unless noted.
Sequence of UniProt Q96KQ7 (Q96KQ7 whole entry, looked up): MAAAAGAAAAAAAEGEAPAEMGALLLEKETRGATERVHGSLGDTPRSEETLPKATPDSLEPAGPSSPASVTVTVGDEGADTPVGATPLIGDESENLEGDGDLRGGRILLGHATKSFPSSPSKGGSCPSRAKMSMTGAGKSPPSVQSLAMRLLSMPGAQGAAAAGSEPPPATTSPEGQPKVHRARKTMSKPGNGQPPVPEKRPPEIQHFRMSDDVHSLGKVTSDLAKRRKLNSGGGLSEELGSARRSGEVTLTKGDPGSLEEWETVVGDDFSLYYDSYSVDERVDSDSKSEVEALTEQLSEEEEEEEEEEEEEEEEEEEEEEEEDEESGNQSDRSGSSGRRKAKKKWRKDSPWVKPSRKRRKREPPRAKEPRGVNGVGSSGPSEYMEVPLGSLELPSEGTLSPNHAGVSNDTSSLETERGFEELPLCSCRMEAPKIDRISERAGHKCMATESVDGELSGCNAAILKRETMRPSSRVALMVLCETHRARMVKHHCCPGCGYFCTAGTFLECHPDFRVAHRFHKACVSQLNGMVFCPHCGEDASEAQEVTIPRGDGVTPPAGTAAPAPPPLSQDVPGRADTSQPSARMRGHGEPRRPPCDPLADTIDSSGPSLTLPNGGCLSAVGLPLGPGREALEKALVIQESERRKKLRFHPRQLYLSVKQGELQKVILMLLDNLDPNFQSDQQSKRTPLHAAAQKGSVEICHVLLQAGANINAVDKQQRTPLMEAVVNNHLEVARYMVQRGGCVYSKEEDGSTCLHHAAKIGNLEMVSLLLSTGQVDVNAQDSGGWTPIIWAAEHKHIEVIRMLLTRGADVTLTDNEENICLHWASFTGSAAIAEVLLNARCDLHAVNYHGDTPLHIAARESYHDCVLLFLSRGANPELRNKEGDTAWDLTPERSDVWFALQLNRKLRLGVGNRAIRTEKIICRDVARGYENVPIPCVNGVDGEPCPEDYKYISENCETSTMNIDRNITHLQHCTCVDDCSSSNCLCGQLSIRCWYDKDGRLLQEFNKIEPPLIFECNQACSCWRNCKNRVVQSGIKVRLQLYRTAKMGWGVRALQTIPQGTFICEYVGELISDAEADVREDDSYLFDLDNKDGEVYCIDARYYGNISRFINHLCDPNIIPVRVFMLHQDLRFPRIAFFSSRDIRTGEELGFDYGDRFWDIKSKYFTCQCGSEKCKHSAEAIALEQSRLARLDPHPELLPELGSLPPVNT
Summary of the method: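 Methyltransferase reactions run at room temperature for 2 h (20 nM enzyme, 500 nM biotin-H3K9 peptide, 20 uM SAM) after a 15 min compound preincubation; product detected by AlphaScreen beads and anti-H3K9me1 antibody.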
`Cn1ccnc1SCC(=O)Nc1ccc2nc(SCC(=O)NC3CC3)sc2c1` was tested, and the Potency was inconclusive: 20 µM [inhibitor, single point]. In the case of `CCOC(=O)C1=C(O)/C(=C/c2cc(OC)c(O)c(OC)c2)SC1=Nc1ccc(OC)cc1`, the Potency is reported as active: 8.91 µM. `COc1ccc(CCNC(=O)CCCCn2c(=O)c3ccccc3n(Cc3cccc(C)c3)c2=O)cc1OC` was tested, and the Potency was “inactive”. `O=C(Nc1cccc(S(=O)(=O)N2CCCC2)c1)c1cccc(S(=O)(=O)N2CCOCC2)c1` was tested, and the activity, negative = inhibition was inactive: 21.8% [at 12.7 µM]. With `CN(C)c1nc(NCc2ccccc2)nc(SCC(=O)Nc2ccccc2Cl)n1` the Potency was inconclusive: 10 µM [inhibitor, partial curve, poor fit]. With `COc1ccc(CNC(=O)c2ccc(-c3nc(CSc4ccccc4)c(C)o3)cc2)cc1` the Potency was “inactive”. For `COc1ccc(CCC(=O)Nc2cccc(S(=O)(=O)N3CCOCC3)c2)cc1OC`, the Potency was inconclusive: 89.1 µM [inhibitor, partial curve, poor fit]. In the case of `O=C(Cn1nc(-c2ccccc2)ccc1=O)Nc1ccc(N2CCN(C(=O)c3cccs3)CC2)cc1`, the Potency is reported as inconclusive: 2.51 µM [inhibitor, full curve]. `Cc1ccc(C(=O)NC(=S)NCC(=O)c2ccccc2)cc1` was tested, and the Potency was inconclusive: 39.8 µM [inhibitor, partial curve, poor fit]. For `CC(C)c1ccc(N=Cc2c(O)c3ccccc3oc2=O)cc1`, the Potency was “inactive”. In the case of `CCC(C(=O)NCC1CCCO1)N(Cc1ccccc1)C(=O)CNS(=O)(=O)c1ccccc1` (stereo not drawn), the Potency is reported as “inactive”. `COc1cccc(C(=O)NCCS(=O)(=O)N2CCC3(CC2)OCCO3)c1` was tested, and the Potency was active: 15.8 µM. In the case of `CC(=O)c1cccc(NC(=O)C(OC(=O)c2cccc(S(=O)(=O)N(C)c3ccccc3)c2)c2ccccc2)c1` (stereo not drawn), the Potency is reported as inconclusive: 1.58 µM [inhibitor, full curve]. With `Cc1ccc(/C(O)=C2/C(=O)C(=O)N(CCN3CCOCC3)C2c2ccccn2)cc1` (stereo not drawn) the Potency was inconclusive: 3.55 µM [inhibitor, partial curve, poor fit]. With `COc1ccccc1CNc1ccc(N2CCCCC2)cc1` the Potency was inconclusive: 0.891 µM [inhibitor, full curve, poor fit]. For `O=C(NNC(=O)c1ccc(Cl)cc1Cl)c1cnccn1`, the Potency was inconclusive: 0.631 µM [inhibitor, full curve, poor fit]. For `CCc1ccc(-c2nc(CN3CCCC(C(=O)NCc4ccccc4Cl)C3)c(C)o2)cc1` (stereo not drawn), the Potency was inconclusive: 10 µM [inhibitor, partial curve]. `CC1C2=C(CC(C)(C)CC2=O)NC2=C1C(=O)CC(C)(C)C2` was tested, and the Potency was “inactive”.
